# Measured values published in PubChem BioAssay (NCATS).
# The other results are listed elsewhere or left out. Further columns of the screen follow, without active or inactive calls. Compounds called inactive in the main read-out are mostly missing here. Potencies come from curve fits of mixed quality, noted in brackets.
# Experiment: qHTS Assay for Lipid Storage Modulators (AID 1519)
# Settings: Drosophila S3 cells, BODIPY lipid droplet/cell ratio, laser cytometry; measured here: lipid (BODIPY) channel AC50; cells loaded with oleic acid
# Outline: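 Cells seeded at 5,000 per well were treated with compounds over a concentration series and loaded with oleic acid (400 uM, as added). Lipid droplet fluorescence (488 nm excitation, 500-530 nm channel) was read by laser-scanning cytometry and normalized to 20 uM Triacsin C.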
# Tags describe the fitted curve by direction and shape.
row,SMILES,AC50
1,C=CC(C)(O)CCCC(C)CCCC(C)CCCC(C)C (stereo unspecified),"28.2 µM [rising, partial curve, poor fit]"
2,CN(C)c1ncc2nc(-c3cccs3)c(=O)n(C)c2n1,"2.82 µM [rising, full curve, poor fit]"
3,COc1ncc2nc(-c3ccc(Cl)cc3)c(=O)n(CCc3ccccc3)c2n1,"0.0224 µM [rising, full curve, poor fit]"
4,COc1ccc(C(=O)N2CCC[C@@]3(CCN(c4cccc(-c5ccccc5)c4)C3)C2)cc1,"35.5 µM [falling, single point]"
5,NCCCCCCNS(=O)(=O)c1ccc2c(Cl)cccc2c1,"31.6 µM [rising, partial curve, poor fit]"
6,CC(N)(Cc1ccc(O)cc1)C(=O)O (stereo unspecified),"7.94 µM [falling, full curve, poor fit]"
7,COc1cccc2oc(-c3ccccc3)cc(=O)c12,"5.01 µM [rising, partial curve]"
8,CN(C)c1ncc2nc(-c3ccccc3)c(=O)n(CCc3ccccc3)c2n1,"0.0794 µM [rising, full curve]"
9,FC(F)(F)c1ccccc1-c1nccc(-n2ccnc2)n1,"0.398 µM [rising, full curve, poor fit]"
10,COc1cccc(Cn2c(=O)c(-c3ccc(Cl)cc3)nc3cncnc32)c1,"0.794 µM [rising, partial curve]"
11,CCCn1c(=O)c(C)cn2nc(N)nc12,"15.8 µM [rising, partial curve]"

# Same assay, conditions: Drosophila S3 cells, BODIPY lipid droplet/cell ratio, laser cytometry; measured here: lipid channel max response; cells loaded with oleic acid
row,SMILES,max response
1,COc1ccc([N+](=O)[O-])c2c1CCN2C(=O)CC[C@H](N)C(=O)O,47.1%
2,CCCCCCCC/C=C\CCCCCCCC(=O)N[C@@H](CO)Cc1ccc(O)cc1,48.3%
3,COc1ccccc1-c1nc(N2CCN(C)CC2)c2ccccc2n1,45.6%
4,Cc1nc2cnc(OCc3ccccc3)nc2n(Cc2ccc(F)cc2)c1=O,36.8%
5,COc1cc2cc(Oc3ccc4ccc(=O)oc4c3)c(=O)oc2cc1O,101%
6,CN(Cc1ccco1)c1ncnc2ccc(-c3cccc(NS(C)(=O)=O)c3)cc12,1.8%
7,C#C[C@]1(O)CC[C@H]2[C@H]3CCC4=Cc5oncc5C[C@]4(C)[C@@H]3CC[C@]21C,71.8%
8,O=c1c(-c2ccc(F)cc2)nc2cncnc2n1Cc1ccc(F)cc1,13.1%
9,O=c1c(-c2cc(F)cc(F)c2)nc2cncnc2n1C1CC1,49.2%
10,COc1ccc(-c2coc3ccc(OC4OC(COC(C)=O)C(OC(C)=O)C(OC(C)=O)C4OC(C)=O)cc3c2=O)cc1 (stereo unspecified),33.2%
11,Cn1cc(-c2nc3cncnc3n(-c3ccccc3)c2=O)c2ccccc21,14.7%
12,CC(C)OC(=O)c1cc2c(OC[C@@H](O)CNC(C)(C)C)cccc2[nH]1,53.6%
13,COc1ccccc1CNc1cc(-c2ccccc2C(F)(F)F)ncn1,48.1%
14,COCCNc1nc(-c2ccoc2)nc2ccccc12,35.5%
15,Cc1nc2cnc(N3CCNCC3)nc2n(CCc2ccccc2)c1=O,42.5%
16,COc1cc(OC)c2c(=O)c(-c3ccc4c(c3)OCO4)coc2c1,39.5%
17,COc1ccccc1N1CCN(CCN2C(=O)c3ccccc3C(C)(C)C2=O)CC1,114%
18,CN(C)c1ncnc2ccc(-c3cccc(C#N)c3)cc12,55.1%
19,Cc1cccc(CNc2ncncc2-c2ccccc2CN(C)C)c1,41.6%
20,COc1ccc2[nH]cc(CCNc3ncncc3-c3cccc(C#N)c3)c2c1,23.8%

row,SMILES,max response
1,Cc1noc(C)c1-c1nc(NC2CC2)c2ccccc2n1,28%
2,CCNc1ncc2nc(-c3ccc(OC)cc3)c(=O)n(Cc3ccc(F)cc3)c2n1,9.93%
3,COc1ccc(-c2nc3cnc(OC)nc3n(C)c2=O)cc1,39.4%
4,COc1cc2c(C(=O)c3ccccc3)c3c4c(cc(OC)c(OC)c4c2cc1OC)CCN3C,-81.6%
5,CS(=O)(=O)Nc1cccc(-c2cc(Nc3ccccc3)ncn2)c1,24.4%
6,COc1cccc(-c2nc(NCc3ccccc3OC)c3ccccc3n2)c1,42%
7,NC(=S)c1ccc[n+]([C@@H]2O[C@@H](COP(=O)([O-])OP(=O)(O)OC[C@H]3O[C@@H](n4cnc5c(N)ncnc54)[C@H](OP(=O)(O)O)[C@H]3O)C(O)C2O)c1 (stereo partly specified),25.1%
8,CN(C)C(=O)c1ccc(-c2ccc3ncnc(N(C)Cc4ccco4)c3c2)cc1,19.2%
9,COc1cccc(-c2nccc(NCc3ccc(OC)cc3OC)n2)c1,31.7%
10,C=CC(C)(O)CCCC(C)CCCC(C)CCCC(C)C (stereo unspecified),84%
11,CN(C)c1ncc2nc(-c3cccs3)c(=O)n(C)c2n1,29.6%
12,COc1ncc2nc(-c3ccc(Cl)cc3)c(=O)n(CCc3ccccc3)c2n1,27.1%
13,COc1ccc(C(=O)N2CCC[C@@]3(CCN(c4cccc(-c5ccccc5)c4)C3)C2)cc1,-60.5%
14,NCCCCCCNS(=O)(=O)c1ccc2c(Cl)cccc2c1,115%
15,CC(N)(Cc1ccc(O)cc1)C(=O)O (stereo unspecified),-49%
16,COc1cccc2oc(-c3ccccc3)cc(=O)c12,139%
17,CN(C)c1ncc2nc(-c3ccccc3)c(=O)n(CCc3ccccc3)c2n1,39.7%
18,FC(F)(F)c1ccccc1-c1nccc(-n2ccnc2)n1,32.9%
19,COc1cccc(Cn2c(=O)c(-c3ccc(Cl)cc3)nc3cncnc32)c1,10.1%
20,CCCn1c(=O)c(C)cn2nc(N)nc12,126%
